# Measurements as given in patent US20250179172A1 (HAINAN SIMCERE ZAIMING PHARMACEUTICAL, published 2025).
# Key:
# [1] = target: T1, human CD5 (Arg25-Pro372)-His protein (Acro, Cat. No. CD5-H52H5) (human, UniProt P06127 25-372); assay: SPR (Biacore), antibody captured on Protein A chip, hCD5-His in solution, 1:1 model
# T1 construct: range 25-372; also called human CD5-His; hCD5-His; not shown: His tag
# T1 sequence (looked up): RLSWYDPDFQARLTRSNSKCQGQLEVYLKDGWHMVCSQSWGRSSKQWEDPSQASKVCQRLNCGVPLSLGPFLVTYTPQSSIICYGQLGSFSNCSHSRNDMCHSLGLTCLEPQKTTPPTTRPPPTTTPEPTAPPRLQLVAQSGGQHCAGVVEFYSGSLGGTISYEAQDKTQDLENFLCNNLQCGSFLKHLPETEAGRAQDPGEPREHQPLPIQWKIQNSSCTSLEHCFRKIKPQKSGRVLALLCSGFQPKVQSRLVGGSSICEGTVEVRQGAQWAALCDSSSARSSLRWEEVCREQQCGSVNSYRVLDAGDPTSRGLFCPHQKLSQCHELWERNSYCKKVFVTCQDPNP
# Description: The anti-human CD5 VHH-hFc was captured using a Protein A chip (GE Healthcare; 29-127-558). The sample and running buffer were HBS-EP+ (10 mM HEPES, 150 mM NaCl, 3 mM EDTA, 0.05% surfactant P20) (GE Healthcare; BR-1006-69). The flow cell was set at 25° C. The sample block was set at 16° C. Both were pretreated with the running buffer. In each cycle, first, the test antibody was captured using the Protein A chip, and then a single concentration of CD5 antigen protein was injected. The association and dissociation processes of the antibody with the antigen protein were recorded, and finally, the chip was regenerated using Glycine pH 1.5 (GE Healthcare; BR-1003-54). The association was determined by injecting different concentrations of recombinant human CD5-His in the solution and maintaining for 240 s, wherein the flow rate was 30 μL/min, and the protein was diluted in a 1:1 dilution ratio from 200 nM (see detailed results for actual concentrations tested) to obtain 5 concentrations in total. The dissociation phase was monitored for up to 600 s and triggered by switching from the sample solution to the running buffer. The surface was regenerated by washing with 10 mM glycine solution (pH 1.5) at a flow rate of 30 μL/min for 30 s. The difference in bulk refractive index was corrected by subtracting the responses obtained from the goat anti-human Fc surface, and blank injections were also subtracted (=double referencing). To calculate the apparent KD and other kinetic parameters, the Langmuir 1:1 model was used. The association rate (Kon), dissociation rate (Koff), and binding affinity (KD) of the VHH-hFc with the hCD5-His protein are shown in Table 12, in which the antibody H65 is used as a control.
# [2] = target: T1, human CD5 (Arg25-Pro372)-His protein …; assay: ELISA on hCD5-His, antibody 0.01 nM
# Description: (§1) The binding activity of the H65 antibody prepared above with human CD5 protein was subjected to ELISA assay. A purchased commercial antigen (human CD5-His) was diluted with PBS to obtain a final concentration of 2 μg/mL, and then added to a 96-well ELISA plate with 100 µL/well. The plate was sealed with a plastic film and incubated at 4° C. over the night, washed twice with PBS in the next day, added with a blocking solution [PBS+2% (w/w) BSA] and blocked at room temperature for 2 h. The blocking solution was drained out, and 100 nM of the H65 antibody or negative control antibody hIgG1 after gradient dilution was added, namely, the obtained product was the antibody Anti-HEL-hIgG1 against hen egg lysozyme (purchased from Biointron, Cat. No. B117901) with 50 μl per well. After incubation for 2 h at 37° C., the plate was washed for 3 times with PBS. A secondary antibody labeled with HRP (horseradish peroxidase) (A0170, purchased from Sigma) was added. After incubation for 2 h at 37° C., the plate was washed for 5 times with PBS. A TMB substrate was added with 50 μL/well and incubated at room temperature for 30 min, then a stop solution (1.0 N HCl) was added with 50 μL/well.
# (§2) To assay the binding activity of VHH-hFc to human CD5 protein, ELISA assay was performed according to the method described in Example 2.2. […] IgG control is hIgG1, and data in the table are values of OD_{450 nm}.
# [3] = target: T1, human CD5 (Arg25-Pro372)-His protein …; assay: ELISA on hCD5-His, antibody 10 nM
# Description: as §1, §2
# [4] = target: T1, human CD5 (Arg25-Pro372)-His protein …; assay: ELISA on hCD5-His, antibody 0.1 nM
# Description: as §1, §2
# [5] = target: T1, human CD5 (Arg25-Pro372)-His protein …; assay: ELISA on hCD5-His, antibody 0.0001 nM
# Description: as §1, §2
# [6] = target: T1, human CD5 (Arg25-Pro372)-His protein …; assay: ELISA, antibody coated at 2 µg/mL, human CD5-his titrated from 30 µg/mL; the EC80 is a concentration of CD5-his
# Description: VHH-hFc was subjected to epitope classification with competitive ELISA. ELISA plates were coated with 2 μg/mL antibodies according to the method described in Example 4.1; the human CD5-his protein was subjected to a gradient dilution from 30 μg/mL, and EC₈₀ values (Table 13) were calculated and applied to the next step of epitope analysis. ELISA plates were coated with 2 μg/mL antibodies; after 25 μg/mL of antibodies to be tested were added, a hCD5-his protein having a EC₈₀ concentration corresponding to each of the antibodies to be tested was then added for incubation for 2 h; the plates were washed for 5 times with PBS and HRP-labeled anti-His antibodies (GenScript, Cat. No. A00612) were added for assay. The coated antibody may bind to the antibody-to be tested-hCD5-his antigen complex in the solution if no competitive relation exists between the coated antibody and the antibody-to be tested in the solution. Moreover, OD_{450 nm} absorbance was detected and an inhibition ratio between each pair of antibodies was calculated according to the OD_{450 nm} absorbance (FIGS. 13A-3B).
# [7] = target: T1, human CD5 (Arg25-Pro372)-His protein …; assay: ELISA on hCD5-His, antibody 0.001 nM
# Description: as §1, §2
Binder,Kd [1],koff [1],kon [1],OD450 [2],OD450 [3],OD450 [4],OD450 [5],EC80 [6],OD450 [7]
"H65 scFv-hFc (Fc fusion, also called H65 antibody) NIQLVQSGPELKKPGETVKISCKASGYTFTNYGMNWVKQAPGKGLRWMGWINTHTGEPTYADDFKGRFAFSLETSASTAYLQINNLKNEDTATYFCTRRGYDWYFDVWGAGTTVTVSSGGGGSGGGGSGGGGSDIKMTQSPSSMYASLGERVTITCKASQDINSYLSWFHHKPGKSPKTLIYRANRLVDGVPSRFSGSGSGQDYSLTISSLDYEDMGIYYCQQYDESPWTFGGGTKLEMK[human IgG1 Fc with changes not printed]",1.56 nM,0.00148 s⁻¹,947000 M⁻¹ s⁻¹,0.17 OD450,2.35 OD450,0.64 OD450,0.07 OD450,0.25 µg/mL,0.09 OD450
"S005-NB144-43 VHH-hFc (Fc fusion, VHH fused to human IgG1 Fc; no linker stated; also called S002-NB144-43) QVQLVESGGGLVQPGGSLRLSCAASGFTWDYYAIGWFRQAPGKEREGVSCIDSSGGSINYLDSVKGRFTVSRDNAKNTVYLQMDSLKPEDTAIYYCAASSYWDCAVPDTGSPKTGHLESYFGSWGQGTQVIVSS[human IgG1 Fc with changes not printed]",0.325 nM,9.87e-05 s⁻¹,304000 M⁻¹ s⁻¹,0.24 OD450,2.16 OD450,0.79 OD450,0.09 OD450,0.03 µg/mL,0.12 OD450
"S005-NB144-73 VHH-hFc (Fc fusion, VHH fused to human IgG1 Fc; no linker stated; also called S002-NB144-73) EVQVVESGGGLVQAGGSLRLSCAASGDTICISAMYWYRQAPGKAREMVAAITSGGSTYYEDSVMGRFTIFRENAKNTVYLQMNSLKPEDTAVYYCNADIAGHNCSGYLKEYWGQGTQVTVSA[human IgG1 Fc with changes not printed]",0.248 nM,0.000351 s⁻¹,1.41e+06 M⁻¹ s⁻¹,0.14 OD450,2.24 OD450,0.48 OD450,0.07 OD450,0.02 µg/mL,0.08 OD450
"S005-NB145-3 VHH-hFc (Fc fusion, VHH fused to human IgG1 Fc; no linker stated) QVQLVESGGGLVQPGGSLRLSCAASGFSLDYYAIGWFRQAPGKEREGVSYISPSDGRTYYADSVKGRFTISRDNAKNTVYLQMNSLKPEDTAVYYCATDWGSTSFDYGLKLSPTQYGYWGQGTQVTVSS[human IgG1 Fc with changes not printed]",1.72 nM,0.000922 s⁻¹,536000 M⁻¹ s⁻¹,0.2 OD450,1.91 OD450,0.61 OD450,0.1 OD450,0.07 µg/mL,0.13 OD450
"S005-NB145-92 VHH-hFc (Fc fusion, VHH fused to human IgG1 Fc; no linker stated) EVQLVESGGGLVQPGGSLRLSCAASGFSLDYYAIGWFRQAPGKEREGVSYISASDGSTYYADSVKGRFTISRDNAKNTVYLQMNSLKPEDTAVYYCATDWGSGSFNYGLRLSPTQYDYWGQGTQVTVSS[human IgG1 Fc with changes not printed]",5.64 nM,0.0024 s⁻¹,426000 M⁻¹ s⁻¹,0.3 OD450,2.04 OD450,0.87 OD450,0.14 OD450,0.23 µg/mL,0.18 OD450
"S005-NB145-22 VHH-hFc (Fc fusion, VHH fused to human IgG1 Fc; no linker stated) QVQLVESGGGLVQAGGSLRLSCAVSGRTLSTVVVGWFRQTPGREREFVAVSRSGGATGYADSVKDRFTISRDNAKNTVALQMNSLKPEDTAVYYCAGRGSGLYGSSWYNQIQEYDGWGQGTQVTVSS[human IgG1 Fc with changes not printed]",0.355 nM,0.000363 s⁻¹,1.02e+06 M⁻¹ s⁻¹,0.2 OD450,1.83 OD450,0.59 OD450,0.09 OD450,0.06 µg/mL,0.12 OD450
"S005-NB145-74 VHH-hFc (Fc fusion, VHH fused to human IgG1 Fc; no linker stated) EVQLVESGGGLVQAGGSLRLSCAASESTFSITAMGWYRQAPGKQRELVAAITSPGGSTNYADSVKGRFTISRDNAKNTMLLQMNSLKPEDTAVYYCNADINHGSGYYTVSWGQGTQVTVSS[human IgG1 Fc with changes not printed]",12.9 nM,0.0146 s⁻¹,1.13e+06 M⁻¹ s⁻¹,0.22 OD450,2.08 OD450,0.85 OD450,0.08 OD450,0.59 µg/mL,0.1 OD450
"S005-NB144-4 VHH-hFc (Fc fusion, VHH fused to human IgG1 Fc; no linker stated) EVQVVESGGGLVQAGGSLRLSCAASGSIFSINAMGWYRQAPGKEREVVAAISNGGNTYYEDSVMGRFTISRDNAKGTLYLQMNGLKPEDTAVYYCNADTVVGGGLLTEVWGQGTLVTVSS[human IgG1 Fc with changes not printed]",3.67 nM,0.000701 s⁻¹,191000 M⁻¹ s⁻¹,0.28 OD450,3 OD450,1.01 OD450,0.09 OD450,0.1 µg/mL,0.17 OD450
"S005-NB144-3 VHH-hFc (Fc fusion, VHH variable region recombined into vector BI3.4-huIgG1 with signal peptide and human IgG1 Fc; no linker between VHH and Fc is stated) QLQLVESGGGLVQPGGSLRLSCAASGFTFSSYAMSWYRQAPGKERELVAAITSAGGSTTYADSVKDRFTISRDNAKNTVSLQMNSLKPEDTAVYYCNAYCTGYVCHEGGYDYWGQGTQVTVSS[human IgG1 Fc with changes not printed]",2.8 nM,0.00218 s⁻¹,781000 M⁻¹ s⁻¹,0.21 OD450,2.05 OD450,0.79 OD450,0.09 OD450,0.15 µg/mL,0.12 OD450
